Test results: the supplement of paper PMC3334620
In all, about 33,000 sequences were measured (“E-score (-0.5 to 0.5)”: median about -0.016, highest 2% from about 0.32 on). This is one part of the list.

Each sequence was assayed against T1, Stp1 (UniProt B3LFK1) (assay: PBM E-score (8-mer binding enrichment) (E-score (-0.5 to 0.5)); higher = stronger / more preferred TF binding; most listed sequences are background and not binding sites). Conditions: protein concentration: 200 nM; construct: GST-full length.
T1 sequence: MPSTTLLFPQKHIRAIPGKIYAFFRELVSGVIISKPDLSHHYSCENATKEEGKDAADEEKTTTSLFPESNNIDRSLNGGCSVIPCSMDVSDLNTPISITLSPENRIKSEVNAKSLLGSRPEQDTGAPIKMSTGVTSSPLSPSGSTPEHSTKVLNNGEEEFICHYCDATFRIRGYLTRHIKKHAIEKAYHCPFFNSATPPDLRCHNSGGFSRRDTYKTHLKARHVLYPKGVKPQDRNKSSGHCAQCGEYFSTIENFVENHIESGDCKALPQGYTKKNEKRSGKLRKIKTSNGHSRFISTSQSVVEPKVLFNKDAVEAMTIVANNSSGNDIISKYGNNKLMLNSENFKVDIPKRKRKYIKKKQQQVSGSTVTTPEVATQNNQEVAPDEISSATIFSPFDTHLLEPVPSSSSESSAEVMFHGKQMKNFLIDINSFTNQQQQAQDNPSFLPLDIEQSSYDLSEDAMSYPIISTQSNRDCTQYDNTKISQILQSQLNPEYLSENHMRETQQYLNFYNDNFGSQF
Description: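 Universal 'all 10-mer' protein binding microarrays (Agilent AMADID 015681) probed with GST-tagged S. cerevisiae TFs (full-length or DBD) made by in vitro transcription/translation (PURExpress), about 100-200 nM. Bound TF was detected with fluorescent anti-GST. Each ungapped 8-mer (which stands for itself and its reverse complement) is scored by the PBM enrichment score (E-score), a modified Wilcoxon-Mann-Whitney statistic from -0.5 to +0.5, computed with the Universal PBM Analysis Suite. Scale: above 0.35 generally sequence-specific binding.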
With CAGTGCTA the “PBM E-score” value was -0.321.
CTTCCTGC was tested, and the “PBM E-score” value was -0.191.
In the case of CCATGCGG, the “PBM E-score” value is reported as 0.242.
For CTATAACC, the “PBM E-score” value was -0.236.
AGTTATTA was tested, and the “PBM E-score” value was 0.136.
AAATTAAG was tested, and the “PBM E-score” value was -0.00684.
ATCTCTAC was tested, and the “PBM E-score” value was -0.0286.
CACTGCCG was tested, and the “PBM E-score” value was 0.336.
For GACTTTAA, the “PBM E-score” value was -0.142.
AGCCTGTG was tested, and the “PBM E-score” value was -0.189.
For ACATCGGA, the “PBM E-score” value was -0.0218.
With GTCATGCA the “PBM E-score” value was 0.0946.
For CCCCCACG, the “PBM E-score” value was -0.183.
For CAGTCACC, the “PBM E-score” value was -0.248.
With GAAGGGCA the “PBM E-score” value was 0.231.
In the case of AAAATACA, the “PBM E-score” value is reported as 0.0755.
For CGAATAGC, the “PBM E-score” value was -0.0392.
GTCCGTTA was tested, and the “PBM E-score” value was -0.165.
For ACCTTGTG, the “PBM E-score” value was 0.0315.
ATAACAAA was tested, and the “PBM E-score” value was 0.259.
AGACAGGG was tested, and the “PBM E-score” value was -0.0469.
For ACAACTTA, the “PBM E-score” value was -0.0708.
ATGGAACC was tested, and the “PBM E-score” value was -0.134.
With ACTGCGCC the “PBM E-score” value was 0.265.
AAGTAGCA was tested, and the “PBM E-score” value was 0.0981.
With CCTGTCAG the “PBM E-score” value was -0.142.
ACGGGTCT was tested, and the “PBM E-score” value was -0.0113.
In the case of AGGATTTC, the “PBM E-score” value is reported as -0.0126.
GCGTGCAC was tested, and the “PBM E-score” value was 0.0305.
CATTTCCC was tested, and the “PBM E-score” value was 0.159.
ATAATGCC was tested, and the “PBM E-score” value was 0.325.
With TACTCTGA the “PBM E-score” value was 0.105.
For CGTCCTAA, the “PBM E-score” value was 0.0169.
With CATAACGG the “PBM E-score” value was -0.0232.
With CGCGTTAC the “PBM E-score” value was 0.132.
In the case of GACCTAGA, the “PBM E-score” value is reported as -0.148.
With GTTAAAAC the “PBM E-score” value was -0.0479.
TTCTAAAA was tested, and the “PBM E-score” value was 0.12.
For CCTACTCG, the “PBM E-score” value was 0.0409.
With CATAAACC the “PBM E-score” value was 0.00914.
With AGGTATGG the “PBM E-score” value was -0.077.
With CTCCAAAG the “PBM E-score” value was -0.0697.
In the case of AAGATGCC, the “PBM E-score” value is reported as 0.277.
In the case of ACTTTAGC, the “PBM E-score” value is reported as -0.157.
With AGGGGAAC the “PBM E-score” value was -0.331.
GCTTTCCA was tested, and the “PBM E-score” value was 0.207.
In the case of GGTTTTCA, the “PBM E-score” value is reported as 0.208.
With GATACATC the “PBM E-score” value was 0.032.
In the case of ATGTCTAC, the “PBM E-score” value is reported as -0.0869.
In the case of AAAAAACT, the “PBM E-score” value is reported as 0.00808.
For ATGTTGGA, the “PBM E-score” value was 0.153.
With CAGATCGA the “PBM E-score” value was -0.22.
In the case of ATGTCGGG, the “PBM E-score” value is reported as -0.0272.
In the case of TGGCTGAA, the “PBM E-score” value is reported as 0.03.
For AGGCCGAG, the “PBM E-score” value was -0.00317.
For GGAATCAC, the “PBM E-score” value was -0.0225.
With CCATCTAA the “PBM E-score” value was 0.0176.
In the case of AGAGCACG, the “PBM E-score” value is reported as -0.0369.
GCACGAAC was tested, and the “PBM E-score” value was 0.101.
With AATCACGT the “PBM E-score” value was 0.147.
With CGCTAGCA the “PBM E-score” value was -0.247.
With AACACTAA the “PBM E-score” value was 0.0707.
With GGAAATGA the “PBM E-score” value was 0.0633.
With GATAAGGA the “PBM E-score” value was -0.0309.
With AACAACTG the “PBM E-score” value was 0.0792.
For CACCTCCC, the “PBM E-score” value was -0.321.
With CGGTCAGC the “PBM E-score” value was -0.206.
In the case of AAATTAGC, the “PBM E-score” value is reported as 0.0441.
GCCGAGCA was tested, and the “PBM E-score” value was -0.116.
For GTATATCA, the “PBM E-score” value was 0.114.
With AAAGAGGA the “PBM E-score” value was -0.235.
In the case of AAACAACT, the “PBM E-score” value is reported as 0.051.
For GGAGGTTA, the “PBM E-score” value was -0.237.
In the case of AGAAGGGA, the “PBM E-score” value is reported as -0.344.
ACGGCCGC was tested, and the “PBM E-score” value was 0.406.
With GGAAGGGA the “PBM E-score” value was -0.309.
In the case of CACTTCAA, the “PBM E-score” value is reported as -0.0416.
AATGATAC was tested, and the “PBM E-score” value was 0.234.
In the case of AGGCGCAC, the “PBM E-score” value is reported as 0.179.
In the case of CGAGTACC, the “PBM E-score” value is reported as -0.0293.
With GACGTCTA the “PBM E-score” value was -0.267.
For ACAACCGG, the “PBM E-score” value was -0.0919.
For CATTTGCC, the “PBM E-score” value was 0.0681.
With ATACTGTA the “PBM E-score” value was 0.225.
For TTCTGAAA, the “PBM E-score” value was 0.131.
CTTTACCC was tested, and the “PBM E-score” value was 0.00485.
In the case of CATATTCA, the “PBM E-score” value is reported as 0.212.
For AGGGTGAA, the “PBM E-score” value was -0.262.
CGGCATGA was tested, and the “PBM E-score” value was 0.346.
CCTGAAAC was tested, and the “PBM E-score” value was 0.167.
In the case of CGCCCTTA, the “PBM E-score” value is reported as -0.219.
For CACTGATC, the “PBM E-score” value was -0.2.
For CCGGACGG, the “PBM E-score” value was 0.0116.
With CTCTAGGC the “PBM E-score” value was -0.0817.
GGAGACCA was tested, and the “PBM E-score” value was -0.227.
In the case of CCCTGCTC, the “PBM E-score” value is reported as -0.229.
With CTGCGTGC the “PBM E-score” value was 0.0439.
With GGTGACCA the “PBM E-score” value was -0.303.
With AGTCGTAT the “PBM E-score” value was 0.0617.
In the case of CTTAAATA, the “PBM E-score” value is reported as -0.0705.
In the case of CGACCCTA, the “PBM E-score” value is reported as -0.311.
GCCAGTTA was tested, and the “PBM E-score” value was 0.0242.
For ACTCCCCG, the “PBM E-score” value was 0.108.
In the case of AATTGCCG, the “PBM E-score” value is reported as 0.341.
In the case of GGCGGACA, the “PBM E-score” value is reported as -0.0656.
GCGTATCC was tested, and the “PBM E-score” value was -0.149.
In the case of GTGCTTGA, the “PBM E-score” value is reported as -0.0806.
In the case of CGAACACG, the “PBM E-score” value is reported as 0.142.
For CCCACGCG, the “PBM E-score” value was -0.12.
